The values that follow come from patent publication US20250145646A1, “MACROCYCLIC COMPOUNDS AND DIAGNOSTIC USES THEREOF” (JANSSEN BIOTECH, INC., priority 2021, published 2025).

The target in data set [1] is antigen (prostate-specific membrane antigen, PSMA) (Homo sapiens, UniProt Q04609). In words: HPLC IRF assay of the drug product. The data set is classed as binding. Particulars: antigen solution 1.03 mg/mL, room temperature 20 min. Here is the method: 55 μL of the drug product solution was mixed with 40 μL antigen solution (1.03 mg/mL). The mixed solution was left at room temperature for 20 min.
Sequence of antigen (prostate-specific membrane antigen, PSMA) (Q04609 whole entry): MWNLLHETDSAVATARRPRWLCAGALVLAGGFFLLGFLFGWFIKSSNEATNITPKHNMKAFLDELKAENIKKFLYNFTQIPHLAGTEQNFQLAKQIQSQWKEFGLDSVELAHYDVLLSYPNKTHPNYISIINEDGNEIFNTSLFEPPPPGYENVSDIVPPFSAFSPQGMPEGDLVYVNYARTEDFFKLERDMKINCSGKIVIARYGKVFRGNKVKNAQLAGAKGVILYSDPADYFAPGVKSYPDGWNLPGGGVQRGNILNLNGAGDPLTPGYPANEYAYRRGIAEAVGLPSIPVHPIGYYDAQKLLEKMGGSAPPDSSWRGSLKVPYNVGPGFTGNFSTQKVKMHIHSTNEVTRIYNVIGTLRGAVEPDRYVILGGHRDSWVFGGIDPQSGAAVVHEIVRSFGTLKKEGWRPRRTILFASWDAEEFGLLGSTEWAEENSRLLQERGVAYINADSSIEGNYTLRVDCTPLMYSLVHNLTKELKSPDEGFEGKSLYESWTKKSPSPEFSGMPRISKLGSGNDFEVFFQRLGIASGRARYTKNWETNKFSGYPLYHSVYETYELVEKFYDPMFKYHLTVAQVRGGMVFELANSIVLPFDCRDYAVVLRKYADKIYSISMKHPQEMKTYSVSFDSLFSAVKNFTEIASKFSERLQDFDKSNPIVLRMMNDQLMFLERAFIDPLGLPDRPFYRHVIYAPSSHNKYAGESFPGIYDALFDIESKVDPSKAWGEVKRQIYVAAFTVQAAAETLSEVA

Data set [2] is described as follows: DTPA challenge of the 134Ce drug product (iTLC). The data set is classed as physicochemical. Here is the method:
Aliquot of the drug product solution ^134Ce-TOPA-PSMB1154 (25 μL) was incubated with 10 mM DTPA, pH=6 (50 μL) at room temperature for 30 min. The mixture (2 μL) was spotted on an iTLC strip and the TLC was developed with a 10 mM EDTA solution (pH˜6).
The drug product solution ^134Ce-TOPA-PSMB1154 was kept at 2-8° C. for approx. 24 hours.
Aliquot of the drug product solution ^134Ce-TOPA-B23B62 (25 μL) was incubated with 10 mM DTPA, pH=6 (50 μL) at room temperature for 30 min. The mixture (2 μL) was spotted on an iTLC strip and the TLC was developed with a 10 mM EDTA solution (pH˜6).
The drug product solution was kept at 2-8° C. for approx. 24 hours.

Data set [3] in a line: HPLC analysis of the 134Ce drug product at t=0 h and t=24 h. The data set is classed as physicochemical. Here is the method: HPLC system: Agilent/Lablogic Flow RAM (FR-1A). HPLC method: column: AdvanceBio SEC 300A, 2.7 μm, 7.8×300 mm; mobile phase: Phosphate Buffer, pH 6.8; flow rate: 1 mL/min; column temperature 25° C.; injection volume 20 μL.
The drug product solution was kept at 2-8° C. for approx. 24 hours. After it was equilibrated to room temperature, 100 μL of the drug product solution was analyzed by HPLC.

The nature of data set [4]: Stability of 134Ce-TOPA-1154 in formulation buffer (iTLC). The data set is classed as physicochemical. Particulars: Formulation Buffer @ 4° C. Here is the method: Human, Mouse and Cyno serum was removed from a refrigerator at −20° C. and allowed to thaw to room temperature for 2 h. The serum was filtered through 0.2 μm filter before it was used for stability testing. Formulation buffer (25 mM NaOAc+0.04% PS-20 at pH5.5) was also sterilized by filtering through 0.2 μm filter before it was used for the stability test.
To an aliquot of the drug product solution ^134Ce-TOPA-1154 (0.1 mL, ˜145 uCi) was added 1.35 mL of the filtered formulation buffer. The diluted solution of ^134Ce-TOPA-1154 (0.1 mCi/mL) was used to prepare the following four solutions: • 1. The diluted solution of ^134Ce-TOPA-1154 (0.1 mCi/mL, 0.1 mL)+0.1 mL of the filtered formulation buffer. The mixed solution was kept in a refrigerator at 4° C. • 2. The diluted solution of ^134Ce-TOPA-1154 (0.1 mCi/mL, 0.1 mL)+0.1 mL of the filtered human serum. The mixed solution was kept at 37° C. • 3. The diluted solution of ^134Ce-TOPA-1154 (0.1 mCi/mL, 0.1 mL)+0.1 mL of the filtered mouse serum. The mixed solution was kept at 37° C. • 4. The diluted solution of ^134Ce-TOPA-1154 (0.1 mCi/mL, 0.1 mL)+0.1 mL of the filtered cyno serum. The mixed solution was kept at 37° C.
iTLC without DTPA challenge: At time points of t=0 h, 24 h and 96h, 5-10 μL each of the above four solutions (1, 2, 3, and 4) were spotted on iTLC strips respectively. Each TLC was developed using 10 mM EDTA. Each TLC was scanned on a Lablogic Scan-RAM Radio TLC scanner at >1h after its development.
iTLC with DTPA challenge: At time points of t=0 h, 24 h and 96h, 30 uL each of the above four solutions (1, 2, 3, and 4) was mixed with 10 μL of 10 mM DTPA solution (pH 6.5) respectively. After the solutions were incubated at room temperature for 30 min, 5-10 uL each of the solutions was spotted on iTLC strips respectively. Each TLC was developed using 10 mM EDTA. Each TLC was scanned on a Lablogic Scan-RAM Radio TLC scanner at >1 h after its development.
The radioactivity at the TLC origin is the ^134Ce-TOPA-1154 and the radioactivity at the solvent front is the free or loosely bound Ce-134.

B1: ^134Ce-TOPA-PSMB1154 (conjugate)
heavy: EVQLVESGGGEVQPGRSLRLTCAVSGFTLSRYGMHWVRQAPGKGLEWAALISYDGSNRYYADSVKGRFTISRDNSKNTVFLQMNSLRAEDTAVYYCARERESSGWFEGYFDYWGQGTTVTVSS[left out - human IgG1 constant region]
light: QLVLTQPPSVSVAPGQTARITCGGNNIGSKSVHWYQQKPGQAPVLVVYDNSDRPSGIPERFSGSNSGNTATLTISRVEVGDEADYYCQVWDSSSDHVVFGGGTKLTVLGQPKAAPSVTLFPPSSEELQANKATLVCLISDFYPGAVTVAWKADSSPVKAGVETTTPSKQSNNKYAASSYLSLTPEQWKSHRSYSCQVTHEGSTVEKTVAPTECS
On to B1, for which the “radioconjugate bound to antigen (radio-chromatogram)” value in data set [1] was 96.5%. Further, the “bound Ce-134 after DTPA challenge” value in data set [2] (drug product after purification, 10 mM DTPA pH=6, room temperature 30 min) turned out to be 99.9%; in data set [2] (drug product kept at 2-8° C. for approx. 24 hours), 99.4%. For the same molecule, the “chemical purity by UV trace at 280 nm (HPLC)” value in data set [3] (t=0 h) amounted to 99.8%; in data set [3] (t=24h, kept at 2-8° C.), 96.5%. For the same molecule, the “radiochemical purity (HPLC)” value in data set [3] (t=0 h) is listed as 99.7%; in data set [3] (t=24h, kept at 2-8° C.), 98.3%. Moreover, the “% of intact ^134Ce-TOPA-1154” value is listed as 93.3% in data set [4] (w/DTPA, 0 hr); 93.8% in data set [4] (w/DTPA, 24 hr); 94% in data set [4] (w/DTPA, 96 hr); 95% in data set [4] (w/o DTPA, 0 hr); 90 (*) % in data set [4] (w/o DTPA, 24 hr); 98.5% in data set [4] (w/o DTPA, 96 hr).
